# Measured values taken from PubChem BioAssay AID588342 (National Center for Advancing Translational Sciences (NCATS), 2011).
# Among all 360,000 compounds or so, about 25,000 (6.9%) were called active. The shares of active, inactive and inconclusive entries below differ from those in the screen. Calls follow the shape of the dose curve; as a rule, active = well fitted inhibition curve with a large enough effect; inconclusive = small, poorly fitted or top-dose-only effect; inactive = flat fitted curve, though single readings scatter. Potencies beside an inconclusive call are fits to weak or partial responses and may not hold up.
# Molecular target: Luciferin 4-monooxygenase (Photinus pyralis) (UniProt P08659)
# Assay: qHTS profiling assay for firefly luciferase inhibitor/activator using purifed enzyme and Km concentrations of substrates (counterscreen for miR-21 project); also: nearly all actives have a fitted effect of over 55% in size
# Details: purified FLuc, luminescence inhibition; series mostly up to 57.5 µM
# Outline: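 Biochemical qHTS of compounds, final roughly 60 µM downward over six points, against 10 nM purified firefly luciferase using Km concentrations of substrates (10 uM D-luciferin, 10 uM ATP) in Tris acetate pH 7.5 buffer; luminescence output.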
# Potency is read from the fitted curve at half-maximal effect; tags tell the direction and shape of the fitted curve.
# Chain of UniProt P08659 (P08659 whole entry, looked up): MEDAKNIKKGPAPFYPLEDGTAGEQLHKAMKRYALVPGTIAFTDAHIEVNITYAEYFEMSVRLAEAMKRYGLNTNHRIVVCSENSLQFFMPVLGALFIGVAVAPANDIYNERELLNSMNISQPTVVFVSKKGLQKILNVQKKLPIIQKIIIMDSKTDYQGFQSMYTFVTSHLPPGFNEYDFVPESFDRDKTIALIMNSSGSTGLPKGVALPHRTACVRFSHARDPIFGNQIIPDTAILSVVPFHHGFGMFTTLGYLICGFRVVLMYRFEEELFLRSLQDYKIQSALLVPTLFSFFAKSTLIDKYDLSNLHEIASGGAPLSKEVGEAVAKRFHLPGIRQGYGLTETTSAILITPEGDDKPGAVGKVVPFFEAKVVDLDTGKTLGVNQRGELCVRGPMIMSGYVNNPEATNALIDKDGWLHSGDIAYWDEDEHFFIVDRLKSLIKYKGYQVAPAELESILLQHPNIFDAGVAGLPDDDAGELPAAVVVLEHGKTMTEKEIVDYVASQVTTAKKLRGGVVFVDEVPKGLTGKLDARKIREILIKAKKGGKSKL
row,Compound,Potency
1,Cc1ccc2c(CC(=O)Nc3ccc(S(=O)(=O)Nc4nc(C)cc(C)n4)cc3)coc2c1,"inconclusive: 21.3 µM [inhibitor, partial curve]"
2,COc1ccc(/C=C2\N=C3CCCCCN3C2=O)cc1OC,"inconclusive: 26.9 µM [inhibitor, single point]"
3,CCCCc1ccc(N=N/C(C(=O)Nc2ccc(NC(C)=O)cc2OC)=C(/C)O)cc1,"inconclusive: 13.5 µM [inhibitor, partial curve]"
4,Cc1ccc2nc3n(c(=O)c2c1)CCCCC3,"inconclusive: 21.3 µM [inhibitor, partial curve, poor fit]"
5,COC(=O)Cn1c(-c2ccc(OC)cc2)c(-c2ccc(OC)cc2)nnc1=O,"inconclusive: 37.9 µM [inhibitor, partial curve, poor fit]"
6,CCCCc1nn2c(=O)cc(COC(=O)c3ccc(NC(=O)c4cccc(OC)c4)cc3)nc2s1,inactive
7,CCc1noc(C)c1C(=O)Nc1nc2c(C)cccc2s1,"inconclusive: 37.9 µM [inhibitor, partial curve, poor fit]"
8,Cn1c2ccccc2c2c(C(=O)NCC3CCCO3)cn(C3CCCC3)c(=O)c21 (stereo unspecified),active: 16.9 µM
9,CCOC(=O)CSCc1cn2cc(Cl)ccc2n1,"inconclusive: 21.3 µM [inhibitor, single point]"
10,O=C(NCc1cccc(C(F)(F)F)c1)C1CC(c2ccccc2C(F)(F)F)=NO1 (stereo unspecified),inactive
11,CCCCc1nn2c(C)c(-c3ccc(OCC)cc3)nc2s1,"inconclusive: 16.9 µM [inhibitor, partial curve]"
12,COc1ccc(-c2nc(N)n(C(C)=O)n2)cc1,"inconclusive: 21.3 µM [inhibitor, single point]"
13,O=C(N/N=C/c1ccc(N2CCOCC2)s1)c1ccc(NS(=O)(=O)c2cccs2)cc1,active: 26.9 µM
14,CC(C)(C)c1ccc(CCC(CC(=O)O)CC(=O)O)cc1,"inconclusive: 23.9 µM [inhibitor, partial curve, poor fit]"
15,COc1cccc(-n2c(=S)sc3c(=O)n(-c4ccccc4OC)c(=S)[nH]c32)c1,"inconclusive: 23.9 µM [inhibitor, partial curve]"
16,CC(C)c1ccc(Nc2nnc(SC3CCOC3=O)s2)cc1 (stereo unspecified),active: 7.57 µM
17,COc1ccc(-c2noc(C3CCCN(C(=O)Nc4ccccc4F)C3)n2)cc1 (stereo unspecified),"inconclusive: 16.9 µM [inhibitor, partial curve, poor fit]"
18,O=c1cc(CNc2cc(Cl)ccc2Cl)nc2sccn12,"inconclusive: 30.1 µM [inhibitor, partial curve, poor fit]"
19,N#CCCN(C(=O)COC(=O)c1ccc(S(=O)(=O)N2CCCC2)cc1)c1cccc(Cl)c1,inactive
20,COc1ccccc1-c1c(C)nn2c(N)c(-c3ccc(Cl)cc3)cnc12,"inconclusive: 2.39 µM [inhibitor, partial curve]"
21,COc1ccccc1OCC(=O)Sc1ccc(C)cc1,"inconclusive: 23.9 µM [inhibitor, partial curve]"
22,O=C1c2ccccc2C(=O)N1CCc1c[nH]c2ccc(O)cc12,"inconclusive: 26.9 µM [inhibitor, partial curve]"
23,O=C1NC(=O)C2(CCCCCCCCCCC2)N1,inactive
24,Fc1ccc(N2N=C(c3cccs3)CC2c2ccccc2)cc1 (stereo unspecified),inactive

row,Compound,Potency
1,COc1ccc2oc(=O)c(-c3nc4ccc(C)cc4[nH]3)cc2c1,inactive
2,CC(C)NC(=O)CSc1nnc(COc2ccccc2Cl)o1,"inconclusive: 26.9 µM [inhibitor, single point]"
3,CN1CCN(/N=C/c2ccc(OCc3ccccc3)cc2)CC1,active: 9.53 µM
4,CC1CN(C(=O)Nc2ccc3snnc3c2)c2ccccc21 (stereo unspecified),active: 19 µM
5,CCN(CC1CCCO1)C(=O)c1cc(COc2ccccc2SC)on1 (stereo unspecified),"inconclusive: 26.9 µM [inhibitor, partial curve]"
6,CCOc1ccccc1CNC(=O)C1CCN(Cc2cc3ccccc3n2Cc2ccccc2)CC1,inactive
7,O=C(N/N=C/c1ccc([N+](=O)[O-])cc1)c1c[nH]c2ccccc12,inactive
8,Cc1ccc(C)n1-c1ccccc1N,"inconclusive: 10.7 µM [inhibitor, partial curve]"
9,C/C(=N\NC(=O)c1ccoc1C)c1ccccc1O,active: 15.1 µM
10,CN(C)S(=O)(=O)N(CC(=O)NCCSc1ccc(Cl)cc1)c1ccccc1,"inconclusive: 23.9 µM [inhibitor, partial curve, poor fit]"
11,Cc1nc(C)c(-c2ccn(C(=O)NC(C)C)n2)s1,inactive
12,O=C(Nc1cc([N+](=O)[O-])ccc1O)c1ccc2c(c1)C(=O)N(Cc1ccco1)C2=O,"inconclusive: 19 µM [inhibitor, partial curve]"
13,COc1ccc(-c2cc(C(=O)N3CCCCCC3)no2)cc1,active: 1.9 µM
14,COc1ccc2cc(C(=O)N3CCN(C)CC3)[nH]c2c1,"inconclusive: 19 µM [inhibitor, partial curve]"
15,Cn1c(=O)c2[nH]c(-c3ccccc3)c(O)c2n(C)c1=O,"inconclusive: 10.7 µM [inhibitor, partial curve, poor fit]"
16,CS(=O)(=O)Nc1ccc(-c2cn3c(n2)SCC3)cc1,"inconclusive: 37.9 µM [inhibitor, partial curve, poor fit]"
17,COc1ccccc1C(=O)NCC(=O)OCC(=O)Nc1nnc(-c2ccccc2)o1,"inconclusive: 21.3 µM [inhibitor, single point]"
18,O=C(COC(=O)CCC1CCCC1)Nc1ccccc1OC(F)F,"inconclusive: 37.9 µM [inhibitor, single point]"
19,Clc1ccc(OCCn2c(-c3ccco3)nc3ccccc32)cc1,"inconclusive: 37.9 µM [inhibitor, partial curve, poor fit]"
20,N#Cc1c(NC(=O)c2ccccc2)sc2c1CCC2,active: 2.69 µM
21,CCNC(=S)Nc1cc(C)ccn1,"inconclusive: 12 µM [inhibitor, partial curve, poor fit]"
22,Cc1nn(Cc2c(F)c(F)c(F)c(F)c2F)c(C)c1NC(=O)c1ccc(COc2cc(Cl)ccc2Cl)cc1,"inconclusive: 16.9 µM [inhibitor, partial curve]"
23,Cc1cc(NS(=O)(=O)c2ccc(NC(=O)/C=C/c3c(F)cccc3Cl)cc2)no1,"inconclusive: 30.1 µM [inhibitor, single point]"
24,C=CC[n+]1c(-c2ccc(OC)cc2)csc1NNC(=O)Nc1ccccc1,"inconclusive: 19 µM [inhibitor, partial curve, poor fit]"

row,Compound,Potency
1,O=C(COC(=O)Cn1c(C(F)(F)F)nc2ccccc21)Nc1ccc2c(c1)OCCO2,"inconclusive: 33.8 µM [inhibitor, partial curve, poor fit]"
2,Cc1ccc(C)c(NC2=C(c3ccc(C(F)(F)F)cc3)C(=O)c3ccccc32)c1,inactive
3,CCCN(CCC)S(=O)(=O)c1ccc(C(=O)N2CCn3c4c(c5cc(C)ccc53)CCCC42)cc1 (stereo unspecified),"inconclusive: 2.69 µM [inhibitor, partial curve, poor fit]"
4,O=C(COc1ncnc2ccccc12)Nc1cccc([N+](=O)[O-])c1,inactive
5,O=C1CCC/C(=N/Nc2ccc(Cl)cc2)C1,"inconclusive: 37.9 µM [inhibitor, single point]"
6,CCOc1ccc(C(=O)NCc2ccccn2)cc1,"inconclusive: 30.1 µM [inhibitor, partial curve, poor fit]"
7,N/C(=N\OC(=O)c1ccccc1Br)c1ccc([N+](=O)[O-])cc1,active: 5.36 µM
8,COc1cc(/C=N/N2CCN(c3ccccc3OC)CC2)ccc1O,"inconclusive: 19 µM [inhibitor, partial curve]"
9,CCOc1ccccc1C(=O)NC(C(=O)Nc1ccccc1N1CCOCC1)C(C)C (stereo unspecified),inactive
10,CC(=O)c1ccc(N2CCN(C(=O)/C=C/c3ccc4ccccc4n3)CC2)cc1,"inconclusive: 12 µM [inhibitor, partial curve, poor fit]"
11,CC(C)c1ccc(OCC(=O)N2CCc3ccccc3C2)cc1,"inconclusive: 37.9 µM [inhibitor, single point]"
12,COc1ccc(C)cc1NC(=O)C(c1ccccc1)N1CCN(CC(=O)NC2CC2)CC1 (stereo unspecified),inactive
13,O=C1c2ccccc2C(Nc2ccc(-c3nc4ccccc4[nH]3)cc2)N1Cc1ccco1 (stereo unspecified),"inconclusive: 16.9 µM [inhibitor, partial curve]"
14,Cc1nc(C)c(-c2csc(Nc3ccc(N)cc3)n2)s1,active: 10.7 µM
15,CCOC(=O)c1c(C)[nH]c(C(=O)OCC(=O)N(C)CC(=O)Nc2ccccc2Cl)c1C,"inconclusive: 26.9 µM [inhibitor, single point]"
16,O=C(Cc1ccccc1)c1nnc(-c2ccccc2)o1,"inconclusive: 26.9 µM [inhibitor, single point]"
17,CCOC(=O)C1CCCN(C2=NC(=O)/C(=C/c3ccc(N(C)C)cc3)S2)C1 (stereo unspecified),active: 12 µM
18,CCOc1ccc(-c2cn(-c3cccc(SC)c3)c(=O)[nH]2)cc1,"inconclusive: 19 µM [inhibitor, partial curve, poor fit]"
19,NS(=O)(=O)c1ccc(NC(=S)NCc2ccccc2)cc1,inactive
20,CCCc1ccc(C(=O)NNc2cccc(C)c2)cc1,active: 21.3 µM
21,COc1cccc(/C=C/C(=O)OCC(=O)c2cc(C)n(CC3CCCO3)c2C)c1OC (stereo unspecified),active: 13.5 µM
22,Cc1ccc(-c2nn(-c3ccccc3)cc2CN(C)C(=O)CCC(=O)O)cc1C,active: 19 µM
23,COc1cccc(CN2CC(C(=O)N(C)Cc3ccc(C)cc3)CCC2=O)c1 (stereo unspecified),"inconclusive: 37.9 µM [inhibitor, partial curve, poor fit]"
